First the molecules themselves.
B1: TEV protease; numbered along this chain (parent)
chain: MGESLFKGPRDYNPISSSICHLTNESDGHTTSLYGIGFGPFIITNKHLFRRNNGTLVVQSLHGVFKVKDTTTLQQHLVDGRDMIIIRMPKDFPPFPQKLKFREPQREERICLVTTNFQTKSMSSMVSDTSCTFPSGDGIFWKHWIQTKDGQCGSPLVSTRDGFIVGIHSASNFTNTNNYFTSVPKNFMELLTNQEAQQWVSGWRLNADSVLWGGHKVFMVKPEEPFQPVKEATQL

In this assay the parent is B1. The assay can be described thus: raw area under fraction-flipped curve 0-4 h after induction (AUC4h, not background-subtracted), DNA-recorder readout of cleavage of the substrate (dimensionless); higher = more cleavage of the substrate by the protease variant. The note with it: temperature: 34 °C; time window: 0-4 h after rhamnose induction. As to the method:
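In vivo DNA recorder in E. coli TOP10(DE3) ΔrhaA at 34 °C. Each TEVp single-site mutant (parent TEVp 0) is paired with a single-site variant of the 7-mer TEVs (canonical ENLYFQ|S). The substrate sits between flexible linkers in a Bxb1-sfGFP-TEVs-SsrA fusion, so cleavage stabilises Bxb1 and speeds flipping of a recombination array, read by NGS. The value is the raw area under the fraction-flipped curve over 0-4 h after rhamnose induction (AUC4h), with ≥20 reads per time point. It is not background-subtracted; inactive controls average about 0.047.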

This is one part of the list. Sequences were assembled here from the parent chain. Values near 0.05 are background.
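Also: Bxb1 expression induced with 0.2% (w/v) L-rhamnose at OD600 near 0.5, cultures sampled hourly, flipped fraction per protease–substrate barcode pair counted by paired-end Illumina sequencing.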

Regarding MGESLFKGPRDYNPISSSICHLTNESDGHTTSNYGIGFGPFIITNKHLFRRNNGTLVVQSLHGVFKVKDTTTLQQHLVDGRDMIIIRMPKDFPPFPQKLKFREPQREERICLVTTNFQTKSMSSMVSDTSCTFPSGDGIFWKHWIQTKDGQCGSPLVSTRDGFIVGIHSASNFTNTNNYFTSVPKNFMELLTNQEAQQWVSGWRLNADSVLWGGHKVFMVKPEEPFQPVKEATQL [L33N], the “area with substrate ANLYFQS” value stood at 0.0559, the “area with substrate CNLYFQS” value is 0.066, the “area with substrate DNLYFQS” value is 0.0998 and the “area with substrate GNLYFQS” value came out at 0.0612. The “area with substrate HNLYFQS” value is 0.0611, the “area with substrate INLYFQS” value came to 0.0592, the “area with substrate KNLYFQS” value was 0.0636 and the “area with substrate LNLYFQS” value is 0.0631. For the same variant, the “area with substrate MNLYFQS” value is 0.0545, the “area with substrate NNLYFQS” value stood at 0.0881, the “area with substrate QNLYFQS” value is 0.0573 and the “area with substrate RNLYFQS” value was 0.0605. The “area with substrate SNLYFQS” value is 0.0734, the “area with substrate TNLYFQS” value was 0.0596, the “area with substrate VNLYFQS” value was determined as 0.0522 and the “area with substrate WNLYFQS” value came out at 0.0633.

MGESLFKGPRDYNPISSSICHLTNKSDGHTTSLYGIGFGPFIITNKHLFRRNNGTLVVQSLHGVFKVKDTTTLQQHLVDGRDMIIIRMPKDFPPFPQKLKFREPQREERICLVTTNFQTKSMSSMVSDTSCTFPSGDGIFWKHWIQTKDGQCGSPLVSTRDGFIVGIHSASNFTNTNNYFTSVPKNFMELLTNQEAQQWVSGWRLNADSVLWGGHKVFMVKPEEPFQPVKEATQL [E25K]: the “area with substrate ANLYFQS” value amounted to 0.1, the “area with substrate CNLYFQS” value turned out to be 0.0693, the “area with substrate DNLYFQS” value came to 0.0777 and the “area with substrate FNLYFQS” value was determined as 0.0684. Moreover, the “area with substrate GNLYFQS” value came to 0.0695, the “area with substrate HNLYFQS” value turned out to be 0.073, the “area with substrate INLYFQS” value was found to be 0.0497 and the “area with substrate KNLYFQS” value stood at 0.0607. In addition, the “area with substrate LNLYFQS” value is 0.0642, the “area with substrate MNLYFQS” value was found to be 0.0632, the “area with substrate NNLYFQS” value was found to be 0.0774 and the “area with substrate PNLYFQS” value came to 0.069. The “area with substrate SNLYFQS” value turned out to be 0.0637, the “area with substrate TNLYFQS” value amounted to 0.0682, the “area with substrate VNLYFQS” value was found to be 0.0664 and the “area with substrate WNLYFQS” value worked out at 0.0639. Also, the “area with substrate YNLYFQS” value was found to be 0.0535.

For the variant MGESLFKGPRDYNPISSSICHLTNESDGHTTSLYGIGFGCFIITNKHLFRRNNGTLVVQSLHGVFKVKDTTTLQQHLVDGRDMIIIRMPKDFPPFPQKLKFREPQREERICLVTTNFQTKSMSSMVSDTSCTFPSGDGIFWKHWIQTKDGQCGSPLVSTRDGFIVGIHSASNFTNTNNYFTSVPKNFMELLTNQEAQQWVSGWRLNADSVLWGGHKVFMVKPEEPFQPVKEATQL [P40C], the “area with substrate ANLYFQS” value was found to be 0.063, the “area with substrate CNLYFQS” value worked out at 0.0746, the “area with substrate FNLYFQS” value is 0.0663 and the “area with substrate HNLYFQS” value came to 0.0752. For the same variant, the “area with substrate INLYFQS” value is 0.09, the “area with substrate KNLYFQS” value worked out at 0.067, the “area with substrate LNLYFQS” value came out at 0.0631 and the “area with substrate MNLYFQS” value worked out at 0.0654. Moreover, the “area with substrate PNLYFQS” value stood at 0.0654, the “area with substrate RNLYFQS” value is 0.058, the “area with substrate TNLYFQS” value was 0.0611 and the “area with substrate VNLYFQS” value is 0.0608. Besides, the “area with substrate WNLYFQS” value was 0.0607 and the “area with substrate YNLYFQS” value was determined as 0.0856.

On to MGESLFKGPRDYNPISSSICHLTNESDLHTTSLYGIGFGPFIITNKHLFRRNNGTLVVQSLHGVFKVKDTTTLQQHLVDGRDMIIIRMPKDFPPFPQKLKFREPQREERICLVTTNFQTKSMSSMVSDTSCTFPSGDGIFWKHWIQTKDGQCGSPLVSTRDGFIVGIHSASNFTNTNNYFTSVPKNFMELLTNQEAQQWVSGWRLNADSVLWGGHKVFMVKPEEPFQPVKEATQL [G28L], for which the “area with substrate ANLYFQS” value is 0.0714, the “area with substrate CNLYFQS” value came to 0.039, the “area with substrate DNLYFQS” value is 0.0662 and the “area with substrate GNLYFQS” value was 0.0914. The “area with substrate HNLYFQS” value was 0.0637, the “area with substrate KNLYFQS” value was 0.0671, the “area with substrate LNLYFQS” value stood at 0.051 and the “area with substrate NNLYFQS” value turned out to be 0.065. For the same variant, the “area with substrate PNLYFQS” value stood at 0.0614, the “area with substrate RNLYFQS” value was 0.0533, the “area with substrate SNLYFQS” value came out at 0.0491 and the “area with substrate TNLYFQS” value stood at 0.0669. For the same variant, the “area with substrate VNLYFQS” value worked out at 0.0627, the “area with substrate WNLYFQS” value was 0.0592 and the “area with substrate YNLYFQS” value is 0.0611.

Turning to MGESLFKGPRDYNPISSSICHLTNESDTHTTSLYGIGFGPFIITNKHLFRRNNGTLVVQSLHGVFKVKDTTTLQQHLVDGRDMIIIRMPKDFPPFPQKLKFREPQREERICLVTTNFQTKSMSSMVSDTSCTFPSGDGIFWKHWIQTKDGQCGSPLVSTRDGFIVGIHSASNFTNTNNYFTSVPKNFMELLTNQEAQQWVSGWRLNADSVLWGGHKVFMVKPEEPFQPVKEATQL [G28T], the “area with substrate ANLYFQS” value turned out to be 0.0884, the “area with substrate CNLYFQS” value was 0.0564, the “area with substrate DNLYFQS” value was determined as 0.0702 and the “area with substrate FNLYFQS” value was found to be 0.0586. The “area with substrate HNLYFQS” value came out at 0.074, the “area with substrate INLYFQS” value was determined as 0.0857, the “area with substrate KNLYFQS” value came out at 0.0628 and the “area with substrate LNLYFQS” value is 0.0562. For the same variant, the “area with substrate NNLYFQS” value worked out at 0.0686, the “area with substrate PNLYFQS” value was 0.0768, the “area with substrate SNLYFQS” value was 0.0684 and the “area with substrate TNLYFQS” value came out at 0.0703. In addition, the “area with substrate VNLYFQS” value was 0.0515, the “area with substrate WNLYFQS” value was found to be 0.0581 and the “area with substrate YNLYFQS” value stood at 0.0572.

Consider MGESLFKGPRDYNPISSSICHLTWESDGHTTSLYGIGFGPFIITNKHLFRRNNGTLVVQSLHGVFKVKDTTTLQQHLVDGRDMIIIRMPKDFPPFPQKLKFREPQREERICLVTTNFQTKSMSSMVSDTSCTFPSGDGIFWKHWIQTKDGQCGSPLVSTRDGFIVGIHSASNFTNTNNYFTSVPKNFMELLTNQEAQQWVSGWRLNADSVLWGGHKVFMVKPEEPFQPVKEATQL [N24W], for which the “area with substrate ANLYFQS” value stood at 0.0657, the “area with substrate CNLYFQS” value is 0.0433, the “area with substrate DNLYFQS” value was 0.0671 and the “area with substrate FNLYFQS” value is 0.0507. Besides, the “area with substrate HNLYFQS” value was determined as 0.0605, the “area with substrate INLYFQS” value turned out to be 0.0506, the “area with substrate KNLYFQS” value was determined as 0.0521 and the “area with substrate LNLYFQS” value stood at 0.0623. For the same variant, the “area with substrate MNLYFQS” value is 0.0534, the “area with substrate NNLYFQS” value was 0.0474, the “area with substrate PNLYFQS” value came out at 0.0666 and the “area with substrate RNLYFQS” value was found to be 0.0535. Besides, the “area with substrate TNLYFQS” value came out at 0.0678, the “area with substrate WNLYFQS” value turned out to be 0.0621 and the “area with substrate YNLYFQS” value came to 0.0523.

In the case of MGESLFKGPRDYNPISSSICHLTNESDGHSTSLYGIGFGPFIITNKHLFRRNNGTLVVQSLHGVFKVKDTTTLQQHLVDGRDMIIIRMPKDFPPFPQKLKFREPQREERICLVTTNFQTKSMSSMVSDTSCTFPSGDGIFWKHWIQTKDGQCGSPLVSTRDGFIVGIHSASNFTNTNNYFTSVPKNFMELLTNQEAQQWVSGWRLNADSVLWGGHKVFMVKPEEPFQPVKEATQL [T30S], the “area with substrate ANLYFQS” value amounted to 0.0576, the “area with substrate CNLYFQS” value was found to be 0.0673, the “area with substrate DNLYFQS” value worked out at 0.0737 and the “area with substrate FNLYFQS” value stood at 0.0631. Also, the “area with substrate GNLYFQS” value turned out to be 0.0763, the “area with substrate HNLYFQS” value is 0.0569, the “area with substrate INLYFQS” value stood at 0.0458 and the “area with substrate KNLYFQS” value was determined as 0.0727. The “area with substrate LNLYFQS” value is 0.0627, the “area with substrate MNLYFQS” value turned out to be 0.0672, the “area with substrate NNLYFQS” value came to 0.0457 and the “area with substrate PNLYFQS” value was determined as 0.0555. In addition, the “area with substrate QNLYFQS” value amounted to 0.0697, the “area with substrate SNLYFQS” value is 0.0703, the “area with substrate TNLYFQS” value came out at 0.0719 and the “area with substrate VNLYFQS” value was 0.0911. For the same variant, the “area with substrate WNLYFQS” value was found to be 0.0608.

Turning to MGESLFKGPRDYNPISSSICHLTNESDGHCTSLYGIGFGPFIITNKHLFRRNNGTLVVQSLHGVFKVKDTTTLQQHLVDGRDMIIIRMPKDFPPFPQKLKFREPQREERICLVTTNFQTKSMSSMVSDTSCTFPSGDGIFWKHWIQTKDGQCGSPLVSTRDGFIVGIHSASNFTNTNNYFTSVPKNFMELLTNQEAQQWVSGWRLNADSVLWGGHKVFMVKPEEPFQPVKEATQL [T30C], the “area with substrate ANLYFQS” value amounted to 0.0578, the “area with substrate CNLYFQS” value came to 0.072, the “area with substrate DNLYFQS” value came out at 0.0776 and the “area with substrate FNLYFQS” value is 0.066. Further, the “area with substrate HNLYFQS” value came out at 0.0642, the “area with substrate INLYFQS” value is 0.0628, the “area with substrate KNLYFQS” value came out at 0.0634 and the “area with substrate LNLYFQS” value was determined as 0.0709. For the same variant, the “area with substrate NNLYFQS” value came out at 0.0363, the “area with substrate PNLYFQS” value came out at 0.0663, the “area with substrate QNLYFQS” value amounted to 0.0663 and the “area with substrate SNLYFQS” value is 0.0652. For the same variant, the “area with substrate TNLYFQS” value came to 0.0628, the “area with substrate VNLYFQS” value was found to be 0.0782, the “area with substrate WNLYFQS” value was 0.0603 and the “area with substrate YNLYFQS” value was 0.0647.

The values above are taken from the supplement of paper PMC12217912.
